In article PMC12136788:
The other results are listed elsewhere or left out.

T1: UNK ZnF1-6 (called full-length) (human, UniProt Q9C0B0 30-357)
T1 sequence: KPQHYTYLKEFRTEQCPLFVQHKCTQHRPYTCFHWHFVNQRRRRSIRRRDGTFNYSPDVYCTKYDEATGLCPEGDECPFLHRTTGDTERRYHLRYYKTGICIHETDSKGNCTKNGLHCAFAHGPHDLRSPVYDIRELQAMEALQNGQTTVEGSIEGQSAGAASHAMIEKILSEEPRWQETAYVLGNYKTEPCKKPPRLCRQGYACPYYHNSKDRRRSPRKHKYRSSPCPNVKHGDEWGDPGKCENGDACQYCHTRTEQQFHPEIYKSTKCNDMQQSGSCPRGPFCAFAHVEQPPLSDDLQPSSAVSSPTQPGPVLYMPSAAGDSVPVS

B1: chr2:212999690:213008084:-|three_prime_utr|ENSG00000030419|control|control|control (ssRNA)
RNA: GGGAGUUCUACAGUCCGACGAUCACAAUCGCUGAAGUGGCCCCAGUUAUAAGCUCAGCUUAUUCUCAGGUCUAUCAUCCAAAUAGGAUAGAAAGACCCAUUAGCAGGGAAACUGCUGAUAGUCAUGAAAACAACAUGGAUGGCCAACAGAGGAUUGAGCAUCA
B2: chr1:160214333:160214525:+|3pUTR|ENSG00000162734|msi1|total|mutant (ssRNA)
RNA: GGGAGUUCUACAGUCCGACGAUCCUACAGUGUUUUCCUUUGCACCGAUCCCCACCCCAAUUCAAUCCCGGAAGGGACUUACUCCGGAAACCCUUCUUUACCCGAUAUCCUGGCCCCCUGGGCUUGUGAACACCUCCCCGCCACCAACAGAGGAUUGAGCAUCA
B3: chr20:18487131:18487232:-|3pUTR|ENSG00000089050|msi1|total|mutant (ssRNA)
RNA: GGGAGUUCUACAGUCCGACGAUCAAAUACCGUAACCAGUAACCACAGCCCGCUGUAAAAUUGAAAAUUCAGUUCAGUCAAACCCGCCAUAUUUCAAGUGCUCAACAGCCACUGGUGGCUAUUGGUUACCUUACUGACCAGCCACAACAGAGGAUUGAGCAUCA
B4: chr15:67202635:67202736:-|3pUTR|ENSG00000103591|msi1|FALSE|unique (ssRNA)
RNA: GGGAGUUCUACAGUCCGACGAUCUGCCAAAAUUGCCCUUAUCAUGUUGGCUGCCUGACUUGUUUAUAGGGUCCCCUUAAUUUUAGUUUUUAGUAGGAGGUUAAGGAGAAAUCUUUUUUUUCCUCAGUAUAUUGUAAGAGAGUGCAACAGAGGAUUGAGCAUCA
B5: chr6:119178661:119178762:-|3pUTR|ENSG00000111885|msi1|total|mutant (ssRNA)
RNA: GGGAGUUCUACAGUCCGACGAUCGAAAGAAGCUUUGCCAAUUUUACUUAUUCGUGAUCAAUCAAGGAAAAUCUAAUAAAUUUCCGGCCAAAUAAGAAUACCGCAUAUUCCGUAUGGUUACCGUCAACACAGAGAUCACAACUUCAACAGAGGAUUGAGCAUCA
B6: ENSG00000107863:be:win_5801|CDS_3pUTR|ENSG00000107863|bound_else_gene|NA|bound_elsewhere_windowed (ssRNA)
RNA: GGGAGUUCUACAGUCCGACGAUCGUUCUGCAGCGAAUGCCCAACCUCAUAAACUGUCUGAAACCCCAGGCAGUAAAGCAGAGUUUCAUCCCUGUCUUUAAACUGGGGGUAUGUCCACUCUAGCAAGUAAAAAAACUACUGUUACAACAGAGGAUUGAGCAUCA
B7: chr1:17283265:17283432:+|3pUTR|ENSG00000142619|msi1|total|mutant (ssRNA)
RNA: GGGAGUUCUACAGUCCGACGAUCCAUGUGGUUCUCAGACUUGAAUCUUCUCGGCCCCCCAAAAAGAAGGACCUCAUUUCUUACCGCCUCUCCUGUGAUUCAACACAACCCAUGGAGAUGUCCCCUUCUCACUCUGAAAUCAUCCAACAGAGGAUUGAGCAUCA
B8: ENSG00000175216:stop:overlap|stop_codon|ENSG00000175216|stop_codon|NA|stop_codon (ssRNA)
RNA: GGGAGUUCUACAGUCCGACGAUCGAUGUGGUCUGGACAACACAAAGGUACUGCUCCUUUUCUUCUGUGCAGUUCAGGGAGGGUAGUCACAAGCAGGUCCGAGGCAGGCUGGCCCACAGAGAAGUGGCUUAGUCUUGCUGUAGUCAACAGAGGAUUGAGCAUCA
B9: ENSG00000124766:be:win_3001|3pUTR|ENSG00000124766|bound_else_gene|NA|bound_elsewhere_windowed (ssRNA)
RNA: GGGAGUUCUACAGUCCGACGAUCUUUUUUUGGUAGUUGUUGUUACCCACGCCAUUUUACGUCUCCUUCACUGAAGGGCUAGAGUUUUAACUUUUAAUUUUUUAUAUUUAAAUGUAGACUUUUGACACUUUUAAAAAACAAAAACAACAGAGGAUUGAGCAUCA
B10: chr5:138873012:138874556:-|CDS|ENSG00000146006|control|control|control (ssRNA)
RNA: GGGAGUUCUACAGUCCGACGAUCUUUAUUAUUUUUAUAGUGUUCAUCUCCAGGAAGUGCUGCCCUCCCACUUUAAGAAGAAUUAGGCAGUGCUCAAUGGUUCAGAACCACAGGCAGCUCCGAUCCCAAACACGACUCCAUAUGCAACAGAGGAUUGAGCAUCA
B11: chr20:7982266:7982367:-|CDS|ENSG00000125827|msi1|FALSE|bound_elsewhere (ssRNA)
RNA: GGGAGUUCUACAGUCCGACGAUCGAGAAGUGAGGCCAAUGAUCAGGGGCCCCCAGGAGAGGACGGUGUGACCCGGGAGGAAGUAGAGCCUGAGGAGGCUGAAGAAGGCAUCUCUGAGCAACCCUGCCCAGCUGACACAGAGGUCAACAGAGGAUUGAGCAUCA
B12: ENSG00000198589:be:win_4351|CDS|ENSG00000198589|bound_else_gene|NA|bound_elsewhere_windowed (ssRNA)
RNA: GGGAGUUCUACAGUCCGACGAUCGCAGUAAGGAAUUGCUUGGAGUGUCAACAGCAUUCACAACUGAAAACUAGGGGAGAUAAAGCCUUGAAACCAAUGCAUAGCCUUAUUCCUUUAGGGAAAUCUGCAGCGAAGAGCCCAGUGCAACAGAGGAUUGAGCAUCA
B13: chr7:47276374:47276475:-|3pUTR|ENSG00000136205|msi1|FALSE|unique (ssRNA)
RNA: GGGAGUUCUACAGUCCGACGAUCCUGGGGUUUGGGAAUGUGCUUUGUGAACUCUGCUUUAAAGUGAGGGGCCGAGGAAAACUUAGAAACAGGCAGAGUUGGAAGCAGCCAAAUCACAGUGGGUGUUGUGUGUGUGUGCGUGUGCAACAGAGGAUUGAGCAUCA
B14: chr17:7460970:7461071:-|3pUTR|ENSG00000174282|msi1|FALSE|unique (ssRNA)
RNA: GGGAGUUCUACAGUCCGACGAUCGGAUGGAGAAGGGAAUCUACUUUCUCCCUGUUUUUUUUUCCUGAUGGUUUCUCCCAGACUAGACCAAAUAGCCAGAAAAAUGAUAGGGGUCGGAUGGGUGGGUAAGCCCAGGAUUUGCACCAACAGAGGAUUGAGCAUCA
B15: chr2:190436306:190436418:+|CDS|ENSG00000151690|unk|total|mutant (ssRNA)
RNA: GGGAGUUCUACAGUCCGACGAUCCCUUUUGCCUGUGUAUUACAAACAGCUGGGAAUGUCUCCAAGCCAGAGUGGACUACCCGCCGGUAUUCGUUACUUCAUUGAAUUCUGCAGUGCCCCCUUUUGGGGUGCCGUUGCAGACCGCAACAGAGGAUUGAGCAUCA
B16: ENSG00000198589:be:win_1651|CDS|ENSG00000198589|bound_else_gene|NA|bound_elsewhere_windowed (ssRNA)
RNA: GGGAGUUCUACAGUCCGACGAUCUUUUCAAAAUAUCUGAGUAAUCUGCAGAAUGGGAUGCCCCUGCUCAAGCAAUUGUGUGAUCACGUUCUUCUUAAUCCUGCCAUAUGGAUUCAUACCCCAGCCAAGGUUCAACUGAUGCUCCAACAGAGGAUUGAGCAUCA
B17: chr15:100649042:100649144:+|3pUTR|ENSG00000183475|unk|FALSE|unique (ssRNA)
RNA: GGGAGUUCUACAGUCCGACGAUCUACCUCUGCUUUUCUUUUGCUGUGCUCUUGUUUUUAACUUAUUUUUUUUUUAACAACUGUAGUACACUACCCUGAGACACUGCAUCUCGAUUUCUAUCUCUAGUUAGAGUUGUACUUUUACAACAGAGGAUUGAGCAUCA
B18: chr10:30461265:30461366:+|3pUTR|ENSG00000107968|unk|total|mutant (ssRNA)
RNA: GGGAGUUCUACAGUCCGACGAUCUCUUUGAGCCUUUAUUGGUAAAUUCUGGUAUACAUUGAAUUCAUUAUAAUUUGGGUGACCCGAACAACUUGAAGAUUGCCGCAAUAAGCUGGACCCGUGUCCUAAAAAUGGCUAACUGAUCAACAGAGGAUUGAGCAUCA
B19: chr7:44064065:44064166:+|3pUTR|ENSG00000136279|msi1|total|mutant (ssRNA)
RNA: GGGAGUUCUACAGUCCGACGAUCGCACACCCUUCCCGCCUUUCCAGGACUCAACAAGCUUUAAGGUCAUUCAGAUGCUAAUUCCGACUGCCCUUGUGUCAGAAUACUAAGGUGGGAGGCGGAGCGGAGGUGCCAGUCACUCUGCAACAGAGGAUUGAGCAUCA
B20: chrX:107070192:107070425:-|CDS|ENSG00000089682|control|control|control (ssRNA)
RNA: GGGAGUUCUACAGUCCGACGAUCCGUUCUAGGAGCCAAAUGGCAGAAAAGGACUGGGAGGACCUCAACAUUUAGUAUUCUCUUAGUUUCCUUGCUUUCAGAAACAGUGUUCACAUCUUCAGCCAUGUAUGGCAUUCCCCAUCUCAACAGAGGAUUGAGCAUCA
B21: chr17:49053040:49053141:+|3pUTR|ENSG00000159217|unk|total|mutant (ssRNA)
RNA: GGGAGUUCUACAGUCCGACGAUCCUCAGCUCCUGUGAGGGGUCUGGUCCGGAGAGAGCCAUUUUUAAGGACAGGGAGUUUUACCGCCCUUUUCUACUUUCCUCCCCUCCUCCCAGUCCUUAUCAAUCUUUUUUCCUUUUUCCUCAACAGAGGAUUGAGCAUCA
B22: chr4:25747873:25747886:-|3pUTR|ENSG00000091490|msi1_unk|total|mutant (ssRNA)
RNA: GGGAGUUCUACAGUCCGACGAUCCCGCAGUUAUAAGGCACCUUGAAAUAAAUUGUUUGUGCCUGGAAAUGCAGGGAGGGCAACCGCUUUGUAAAUUGGUUUACAUUUUUCUCCUUGAAUUUUUCCCGGGUCCCCGUGCUUCCGCAACAGAGGAUUGAGCAUCA

The binders below were run against T1, UNK ZnF1-6 (called full-length) (assay: nsRBNS (natural sequence RNA bind-n-seq); RBNS binding buffer (assumed for nsRBNS): 25 mM Tris pH 7.5, 150 mM KCl, 3 mM MgCl2, 0.01% Triton X-100, 500 ug/ml BSA, 20 U/ml SUPERase-In, 4 C; UNK is unkempt and MSI1 is Musashi-1; names of the RNAs are library labels; protein concentration not given here; high values mean tight binding).
Binder B1 has a binding signal of 0.447 enrichment R.
B2 showed a binding signal of 1.14 enrichment R.
For B3, the binding signal was 0.473 enrichment R.
B4 showed a binding signal of 15.9 enrichment R.
In the case of B5, the binding signal is reported as 0.406 enrichment R.
For B6, the binding signal was 0.526 enrichment R.
In the case of B7, the binding signal is reported as 0.501 enrichment R.
Binder B8 has a binding signal of 0.392 enrichment R.
For B9, the binding signal was 4.11 enrichment R.
Work on B10 yielded a binding signal of 1.45 enrichment R.
B11 gave a binding signal of 0.931 enrichment R.
With B12 the binding signal was 0.566 enrichment R.
B13 gave a binding signal of 1.53 enrichment R.
Binder B14 has a binding signal of 3.61 enrichment R.
Binder B15 has a binding signal of 0.392 enrichment R.
B16 gave a binding signal of 0.479 enrichment R.
In the case of B17, the binding signal is reported as 5.29 enrichment R.
Work on B18 yielded a binding signal of 0.335 enrichment R.
B19 showed a binding signal of 0.583 enrichment R.
B20 showed a binding signal of 3.69 enrichment R.
Binder B21 has a binding signal of 1.7 enrichment R.
With B22 the binding signal was 0.589 enrichment R.
